Yeast fitness gain data for 3 molecules are collected here from the supplement of paper PMC11741623.

This is one part of the list. Interaction screen of human proteins with wild-type SARS-CoV-2 proteins by split-DHFR complementation in yeast, 1 µg/mL methotrexate. Value = fitness of the pair (three or more lineages) minus that of the viral protein without a human partner, on a scale set by negative (0) and fused positive (1) controls, mean of up to three cultures; higher = more likely to interact. Active = false discovery rate below 0.05 (one-sided t-test) in at least one culture. Nearly all pairs are not hits, and differences among them are mostly noise (correlation between cultures about 0.3); most hits were seen in one culture only. Human sequences are the Swiss-Prot entries looked up by gene name; the clone may be another isoform. NSP2 values were corrected by the authors for a growth advantage. Listed are human proteins with a hit and a random twelfth of the others.

The chains are these.
B1: C17orf64, Q86WR6 (protein)
chain: MEASDGQGGEGDKPLEQVTNVSCLETSSSASPARDSLMRHAKGLDQDTFKTCKEYLRPLKKFLRKLHLPRDLPQKKKLKYMKQSLVVLGDHINTFLQHYCQAWEIKHWRKMLWRFISLFSELEAKQLRRLYKYTKSSQPAKFLVTFCASDAPERSLLADREDSLPKLCHAWGLHSNISGMKERLSNMQTPGQGSPLPGQPRSQDHVKKDSLRELSQKPKLKRKRIKEAPETPETEP
B2: PDIA5, Q14554 (protein)
chain: MARAGPAWLLLAIWVVLPSWLSSAKVSSLIERISDPKDLKKLLRTRNNVLVLYSKSEVAAENHLRLLSTVAQAVKGQGTICWVDCGDAESRKLCKKMKVDLSPKDKKVELFHYQDGAFHTEYNRAVTFKSIVAFLKDPKGPPLWEEDPGAKDVVHLDSEKDFRRLLKKEEKPLLIMFYAPWCSMCKRMMPHFQKAATQLRGHAVLAGMNVYSSEFENIKEEYSVRGFPTICYFEKGRFLFQYDNYGSTAEDIVEWLKNPQPPQPQVPETPWADEGGSVYHLTDEDFDQFVKEHSSVLVMFHAPWCGHCKKMKPEFEKAAEALHGEADSSGVLAAVDATVNKALAERFHISEFPTLKYFKNGEKYAVPVLRTKKKFLEWMQNPEAPPPPEPTWEEQQTSVLHLVGDNFRETLKKKKHTLVMFYAPWCPHCKKVIPHFTATADAFKDDRKIACAAVDCVKDKNQDLCQQEAVKGYPTFHYYHYGKFAEKYDSDRTELGFTNYIRALREGDHERLGKKKEEL
B3: ODAM, A1E959 (protein)
chain: MKIIILLGFLGATLSAPLIPQRLMSASNSNELLLNLNNGQLLPLQLQGPLNSWIPPFSGILQQQQQAQIPGLSQFSLSALDQFAGLLPNQIPLTGEASFAQGAQAGQVDPLQLQTPPQTQPGPSHVMPYVFSFKMPQEQGQMFQYYPVYMVLPWEQPQQTVPRSPQQTRQQQYEEQIPFYAQFGYIPQLAEPAISGGQQQLAFDPQLGTAPEIAVMSTGEEIPYLQKEAINFRHDSAGVFMPSTSPKPSTTNVFTSAVDQTITPELPEEKDKTDSLREP

For one assay, the target named is SARS-CoV-2 M. Briefly: yeast fitness gain over the viral ORF with no human partner (scaled fitness); higher = more likely to interact. How it is done: (§1)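 Split mouse DHFR complementation in pooled diploid yeast: human ORFeome clones carry one fragment and viral ORFs the other; barcoded lineages compete in 1 µg/mL methotrexate and fitness is read by barcode sequencing in up to three cultures.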
As to B1, the yeast fitness gain is inactive: -0.0714.
As to B2, the yeast fitness gain was inactive: 0.0438.
As for B3, the yeast fitness gain was inactive: 0.0327.

In another assay the target is SARS-CoV-2 N. The assay is described as above. The protocol: as §1
For B1, the yeast fitness gain is inactive: 0.0713.
Still for that read-out and setting: then B2, with inactive: -0.0885.

A further assay has as its target SARS-CoV-2 NSP1. The assay is described as above. How it is done:
as §1
Turning to B1, the yeast fitness gain is inactive: 0.0486.
Still for that read-out and setting: then B2, with inactive: 0.14; and B3, with inactive: 0.00552.

A further assay has as its target SARS-CoV-2 NSP10. Described as above. How it is done:
as §1
For B1, the yeast fitness gain was inactive: 0.0481.
Same read-out and setting: in the case of B2 it was inactive: -0.0313; in that of B3, inactive: -0.0133.

The target in a further assay is SARS-CoV-2 NSP12. The description is as above. The protocol: as §1
Consider B1, for which the yeast fitness gain was inactive: -0.0698.
The same measure, in the same setting: in the case of B2 it was inactive: 0.0809; in that of B3, inactive: -0.0441.

For a further assay, the target named is SARS-CoV-2 NSP13. The description is as above. How it is done:
as §1
As for B1, the yeast fitness gain was inactive: 0.0374.
On the same count and under the same terms, then B2, with inactive: 0.0714; and B3, with inactive: 0.0125.

The target of a further assay is SARS-CoV-2 NSP14. Described as above. How it is done: as §1
With B1, the yeast fitness gain was inactive: -0.117.
For B3, the yeast fitness gain is inactive: -0.36.

Another assay has as its target SARS-CoV-2 NSP16. The assay is described as above. The protocol: as §1
On to B1, for which the yeast fitness gain was inactive: 0.114.
Regarding B2, the yeast fitness gain was inactive: -0.166.

The next assay deals with SARS-CoV-2 NSP2. The assay is described as above. How it is done:
as §1
With B1, the yeast fitness gain was inactive: -0.0574.
The same measure, in the same setting: then B2, with inactive: -0.0732; and B3, with inactive: -0.105.

The next assay has as its target SARS-CoV-2 NSP5. The assay is described as above. The protocol: as §1
B1: the yeast fitness gain was inactive: 0.00611.
Same read-out and setting: then B2, with inactive: -0.0268.
Still for that read-out and setting: in the case of B3 it was inactive: 0.0268.

The target of the next assay is SARS-CoV-2 NSP6. The description is as above. The protocol:
as §1
For the molecule B1, the yeast fitness gain was inactive: 0.168.
Same read-out and setting: in the case of B2 it was inactive: -0.0581.
On the same count and under the same terms, then B3, with inactive: 0.104.

The target of a further assay is SARS-CoV-2 NSP7. The assay is described as above. The protocol: as §1
B1: the yeast fitness gain is inactive: -0.171.
Still for that read-out and setting: in the case of B2 it was inactive: 0.0455; in that of B3, inactive: -0.124.

The next assay concerns the target SARS-CoV-2 NSP8. The assay is described as above. The protocol:
as §1
For the molecule B1, the yeast fitness gain is inactive: -0.00742.
Same read-out and setting: in the case of B2 it was inactive: -0.0336; in that of B3, inactive: -0.078.

The next assay concerns the target SARS-CoV-2 NSP9. Described as above. The protocol: as §1
Turning to B1, the yeast fitness gain was inactive: -0.0065.
On to B2, for which the yeast fitness gain was inactive: -0.0342.

Another assay addresses SARS-CoV-2 ORF10. The description is as above. How it is done:
as §1
Regarding B1, the yeast fitness gain is inactive: 0.00391.
Same read-out and setting: then B2, with inactive: 0.0154.

The next assay addresses SARS-CoV-2 ORF3A. The assay is described as above. The protocol:
as §1
On to B1, for which the yeast fitness gain is inactive: -0.125.
On the same count and under the same terms, then B2, with inactive: -0.0581; and B3, with inactive: -0.255.

The target in another assay is SARS-CoV-2 ORF3B. The assay is described as above. The protocol: as §1
Consider B1, for which the yeast fitness gain is inactive: 0.167.
Still for that read-out and setting: in the case of B2 it was inactive: -0.0407; in that of B3, inactive: -0.0291.

Another assay has as its target SARS-CoV-2 ORF6. Described as above. The protocol:
as §1
In the case of B1, the yeast fitness gain is inactive: 0.00105.
On the same count and under the same terms, then B2, with inactive: 0.0352.
Turning to B3, the yeast fitness gain is inactive: -0.0335.

The next assay has as its target SARS-CoV-2 ORF7A. Described as above. The protocol:
as §1
On to B1, for which the yeast fitness gain was inactive: -0.0841.
On the same count and under the same terms, then B2, with inactive: -0.0767; and B3, with inactive: 0.0928.

For a further assay, the target named is SARS-CoV-2 ORF7B. Described as above. How it is done: as §1
As for B1, the yeast fitness gain is inactive: -0.0361.
B2: the yeast fitness gain is inactive: -0.0822.
Take B3: the yeast fitness gain was inactive: 0.111.

Another assay concerns the target SARS-CoV-2 ORF8. The assay is described as above. How it is done:
as §1
In the case of B1, the yeast fitness gain is inactive: -0.0387.
The same measure, in the same setting: in the case of B2 it was inactive: 0.0413; in that of B3, inactive: -0.042.

Another assay deals with SARS-CoV-2 ORF9B. The description is as above. The protocol:
as §1
With B1, the yeast fitness gain was inactive: -0.0153.
Consider B2, for which the yeast fitness gain is inactive: -0.00721.
Same read-out and setting: in the case of B3 it was inactive: -0.000298.

The target in a further assay is SARS-CoV-2 ORF9Bwu (the 73-codon ORF). The description is as above. The protocol: as §1
In the case of B1, the yeast fitness gain was inactive: 0.0212.
On the same count and under the same terms, in the case of B2 it was inactive: 0.00932.

The target in a further assay is SARS-CoV-2 S. The assay is described as above. How it is done:
as §1
Take B1: the yeast fitness gain is inactive: -0.0447.
Same read-out and setting: in the case of B2 it was inactive: -0.13; in that of B3, inactive: 0.042.

Another assay addresses SARS-CoV-2 NSP15. The assay is described as above. The protocol: as §1
In the case of B2, the yeast fitness gain was inactive: -0.0406.
Same read-out and setting: then B3, with inactive: -0.0489.
